# In paper PMC6919601, “Identification of Plasmodium dipeptidyl aminopeptidase allosteric inhibitors by high throughput screening” (PLoS ONE, 2019):
# Out of some 110,000 compounds screened, about 230 (0.21%) showed an effect of 50% or more. This is one part of the list.
# Target: DPAP1 (Plasmodium falciparum, UniProt Q8IIJ9)
# Assay: primary screen, percent inhibition; read by cleavage of a fluorogenic dipeptide substrate; higher = more effect of the substance
# Set-up: species or system P. falciparum D10 trophozoite lysates; single well
# 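Further: 30 min substrate incubation versus DMSO and 10 µM JCP410 controls.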
# DPAP1, sequence (Q8IIJ9 whole entry, looked up): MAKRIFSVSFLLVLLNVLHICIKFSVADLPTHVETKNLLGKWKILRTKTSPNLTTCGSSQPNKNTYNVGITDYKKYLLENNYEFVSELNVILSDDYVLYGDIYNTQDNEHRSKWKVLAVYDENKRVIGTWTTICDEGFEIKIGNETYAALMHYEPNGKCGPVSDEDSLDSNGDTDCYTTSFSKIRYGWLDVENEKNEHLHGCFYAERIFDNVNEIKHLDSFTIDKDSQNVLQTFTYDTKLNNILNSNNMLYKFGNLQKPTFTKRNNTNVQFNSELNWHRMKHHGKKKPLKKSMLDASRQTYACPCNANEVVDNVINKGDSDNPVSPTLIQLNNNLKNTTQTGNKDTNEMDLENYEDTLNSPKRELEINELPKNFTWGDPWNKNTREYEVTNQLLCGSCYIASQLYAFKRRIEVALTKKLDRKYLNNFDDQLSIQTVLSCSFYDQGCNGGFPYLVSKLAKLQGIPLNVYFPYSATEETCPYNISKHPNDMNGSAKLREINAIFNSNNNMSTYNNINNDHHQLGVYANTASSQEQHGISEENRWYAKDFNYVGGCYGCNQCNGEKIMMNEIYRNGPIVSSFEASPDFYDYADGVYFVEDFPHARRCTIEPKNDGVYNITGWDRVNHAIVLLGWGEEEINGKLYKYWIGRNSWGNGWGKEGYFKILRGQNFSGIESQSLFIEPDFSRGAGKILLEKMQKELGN
row,SMILES,% Inhibition @ 10 uM [%]
1,CCCCCOc1ccc(NC(=O)/C=C/C(=O)O)cc1,0.989
2,Cc1ccc(-n2nnc3c(=O)n(CC(=O)NCc4ccccc4)cnc32)cc1,-5.79
3,CC(C)C[C@@H](C(=O)NCC#N)c1cccc(-c2ccc([SH+](O)(O)N(C)CCN(C)C)cc2)c1,-3.25
4,CCc1[nH]nc2c1C(c1cccc(OCC(N)=O)c1)C(C#N)=C(N)O2 (stereo not shown),1.57
5,CCCCOc1ccc(CNCCCN(CC)CC)cc1OCC,-3.35
6,Cc1ccccc1Cn1cnc2c(nnn2Cc2ccc(F)cc2)c1=O,4.22
7,COc1cc(C(=O)NC(C)(C)C)cc(OC)c1OC,0.755
8,CC(=O)N1c2ccccc2N=C2CC(C)(C)CC(O)=C2C1c1ccccc1Cl (stereo not shown),-5.62
9,CCNC(=O)CN(c1ccc(C(C)C)cc1)S(C)(=O)=O,0.793
10,Cc1ccccc1C(=O)NCCSc1c(C)[nH]c2ccccc12,-3.27
11,COC(=O)C1=C(C)N(CC(C)C)C(=O)/C1=C\c1cccc(OC)c1OC,3.43
12,O=C(Nc1ccc(S(=O)(=O)Nc2ccc(F)cc2)cc1)C1CC1,-0.473
13,O=C(Nc1ccc(F)c(F)c1)c1sc2ccccc2c1Cl,1.27
14,CN(C(=O)Cn1c(SCc2ccc(F)cc2)nc2ccncc21)C1CCCCC1,-7.93
15,Cn1ncc2c(=O)n(CC(=O)c3ccccc3)cnc21,2.33
16,CC(C)(C)c1ccc(S(=O)(=O)Nc2ccc(O)c(C(=O)O)c2)cc1,2.36
17,CCc1ccc2nc(N(CCCN(C)C)C(=O)c3ccco3)sc2c1,11.7
18,CC(C)COc1cccc(C(=O)Nc2ccc(CN3CCOCC3)cc2)c1,5.63
19,COCCN1C(=O)c2cc(C(=O)O)ccc2C1O (stereo not shown),2.39
20,CC(=O)Nc1ccc(S(=O)(=O)N2CCC(C)CC2)cc1,0.343
21,Cc1cccc(COc2cccc(C3(C)NC(=O)NC3=O)c2)c1 (stereo not shown),-5.49
22,CCOC(=O)C1=C(C(F)(F)F)Nc2ncnn2C1c1ccc(OC)c(OC)c1OC (stereo not shown),3.32
23,CCOC(=O)c1c(-c2cccnc2)csc1N,-2.18
24,CCc1ccc(CNC(=O)C2CCN(c3nn4cc(-c5ccc(C)cc5)nc4s3)CC2)cc1,-1.41
25,CCC(C)NC(=O)c1ccccc1NS(=O)(=O)c1ccc(Br)s1 (stereo not shown),-1.27

row,SMILES,% Inhibition @ 10 uM [%]
1,Cc1ccc(-c2cn3cc(Cl)ccc3n2)cc1,-1.25
2,CC1(C)CC(=O)C2=C(C1)N(c1ccc(O)cc1)C(=O)CC2c1ccccc1 (stereo not shown),-4.98
3,O=C(Nc1nc(C2COc3ccccc3O2)cs1)c1cccc(Br)c1 (stereo not shown),-1.71
4,COc1ccc(Cl)cc1-c1ccc(/C=C(\C#N)c2nn(CCO)c(N)c2C#N)o1,3.34
5,O=c1c2c([nH]c(=S)n1CC1CCCCC1)-c1ccccc1CC21CCCCC1,4.57
6,COc1cc(OC)cc(C(=O)Nc2nc(-c3nnn(-c4ccc(F)cc4C)c3C)ns2)c1,-3.02
7,Cc1ccc2c(CNCC3CCCO3)c(C(=O)O)n(Cc3ccc(F)cc3)c2c1 (stereo not shown),3.9
8,CN(Cc1ccccc1)S(=O)(=O)c1ccc(NC(=O)c2ccccc2Cl)cc1,1.29
9,O=C(O)C1CCCCC1C(=O)Nc1ccccn1 (stereo not shown),0.64
10,CC(C)NC(=O)c1cc(Cl)ccc1NC(=O)c1ccco1,-4.59
11,CCc1ccc(NC(=O)/C=C/c2cccc([N+](=O)[O-])c2)cc1,1.29
12,COc1ccc(N2C(=O)CC(N3CCN(c4cccc(Cl)c4)CC3)C2=O)cc1 (stereo not shown),-3.72
13,COc1c(Br)cc2c(C)c(C(=O)N3CCOCC3)oc2c1Br,-3.58
14,Cc1cc(Cl)ccc1OCC(=O)Nc1ccc(Br)cc1,0.907
15,CCC(Sc1nc2ccccc2c2nc(CCn3nc(C)cc3C)nn12)C(=O)NCCCOC (stereo not shown),-2.21
16,O=C(c1ccccc1NS(=O)(=O)Cc1ccccc1Cl)N1CCCCC1,0.145
17,Cc1cc(-c2ccccc2)nc2cc(C(=O)Nc3cc(Cl)ccc3Cl)nn12,-1.66
18,COc1ccc(OC)c(-n2cnc3cc(C(=O)NCc4ccccc4)ccc32)c1,-7.57
19,COc1ccc(C(=O)Nc2nc(C)cs2)c(OC)n1,5.01
20,Cc1ccnc(NC(=O)c2ccc(C)cc2C)c1,1.94
21,O=C1NC(=O)C(CCc2ccncc2)(Cc2ccc(Cl)cc2)C(=O)N1,-3.04
22,COc1ccc(C(=O)Nc2sc3c(c2C(N)=O)CCC(C)C3)c(OC)c1 (stereo not shown),-18.6
23,CC(=O)c1ccc(NC(=O)Cn2cnc3ccccc32)cc1,2.17
24,CCc1ccccc1NCC(O)COc1ccccc1 (stereo not shown),-1.07
25,O=C(Nc1c(C(=O)N2CCOCC2)cnn1-c1ccccc1)c1ccc(Br)cc1,-11.3

row,SMILES,% Inhibition @ 10 uM [%]
1,CC(=O)Nc1ccc(NC(=O)c2ccccc2F)cc1,4.57
2,CCOC(=O)C1CCCN(Cc2ccc(OC)c(C)c2C)C1 (stereo not shown),3.1
3,O=S(=O)(c1ccc(-n2cccn2)cc1)N1CCCC2CCCCC21 (stereo not shown),-0.913
4,CCN(Cc1ccccc1)c1nc2c(S(=O)(=O)c3ccccc3)nnn2c2ccsc12,-5.88
5,O=C(O)C12CC3CC(CC(O)(C3)C1)C2,0.716
6,NS(=O)(=O)c1ccc(CCNCc2cccs2)cc1,0.032
7,CC1CCN(c2nc3ccc(C(=O)NCc4ccco4)cc3s2)CC1,4.22
8,COc1cccc2c1Oc1ncccc1N(C(=O)CCC(=O)NCCCc1ccccc1)C2,2.18
9,O=C(Nc1ccc(Cl)cc1)c1ccc(CN2CCOCC2)cc1,0.643
10,COc1ccc(CCN)c(OCc2ccccc2)c1OC,12.3
11,COc1ccc(CN2CCCN(C)CC2)c(OC)c1,-2.03
12,CCOC(=O)c1ccc(-n2cc(-c3ccc(OCC)cc3)nc2S)cc1,30.2
13,COc1cccc(CN2CCN(Cc3ccc(Cl)cc3)CC2)c1,-9.65
14,Oc1ccc(-c2cnc3ccccc3n2)cc1O,1.02
15,CC(C)c1ccc(S(=O)(=O)NC(C)(C)C)cc1,1.13
16,Cc1ccc(-c2cn3nc(N4CCC(C(=O)N5CCOCC5)CC4)sc3n2)cc1,2.37
17,O=C(COc1ccc(C2C3=C(O)CCCC3=NC3=C2C(=O)CCC3)cc1Cl)Nc1ccccc1 (stereo not shown),2.38
18,CCc1c(C)sc(NC(=O)c2ccco2)c1C#N,7.1
19,CCOc1ccc(C2Nn3c(nnc3-c3ccccc3)SC2C(=O)NCCOC)cc1 (stereo not shown),-1.72
20,COc1ccc(C(=O)Nc2cccc(Cl)c2)cc1OC,3.03
21,CS(=O)(=O)C1=NSC2=NC(=O)/C(=C\c3cn(Cc4ccccc4)c4ccccc34)C(=N)N21,1.85
22,COc1cc(OC)cc(-c2cc3nc(C)c(CCC(=O)Nc4cccnc4)c(C)n3n2)c1,-2.25
23,Cc1ccc2nc3c(cc(C(N)=O)c(=N)n3Cc3cccnc3)c(=O)n2c1,-1.47
24,FC(F)(F)c1ccc(CN2CCOCC2)cc1,-4.28
25,O=S(=O)(NCCNS(=O)(=O)c1ccc(F)cc1)c1ccc(F)cc1,-6.57

row,SMILES,% Inhibition @ 10 uM [%]
1,CCn1c(C(=O)N2CCC(C(=O)NCc3ccc4c(c3)OCO4)CC2)cc2sccc21,2.23
2,C=CCn1c(N2CCOCC2)nc2c1c(=O)n(C)c(=O)n2C,-2.84
3,COc1ccc(OCC(=O)Nc2ccccc2)cc1,-3.39
4,COc1ccc(C2C(=O)N(CCc3ccccc3)CC(=O)N2CCc2ccc(OC)c(OC)c2)cc1 (stereo not shown),-2.26
5,O=C(NC1CCCCCC1)c1cc(-c2ccco2)[nH]n1,-2.18
6,Cc1[nH]c(=O)n(C)c(=O)c1S(=O)(=O)N(C)Cc1ccccc1,4.61
7,Cc1ccc2c(c1)-c1c(cnn1CC(=O)NCCN(C)C)CO2,19.3
8,COCCCN1C(=O)/C(=C/c2ccc(CNS(=O)(=O)c3ccccc3)o2)C(C(=O)OC)=C1C,1.84
9,O=C1NC(c2cccnc2)c2c(-c3cccs3)n[nH]c21 (stereo not shown),-3.35
10,Cc1ccc(C(=O)N2CCN(C(=O)CN3CCCC3)C2)cc1,4.3
11,Cc1cc(OCC(O)CN2CCC(C)CC2)ccc1C(C)C (stereo not shown),-2.35
12,CCOc1ccc(NC(=O)C2=C(C)NC(=O)NC2c2ccc(OC)c(OC)c2)cc1 (stereo not shown),12.1
13,O=C1C=C(c2ccccc2)OC(c2ccc([N+](=O)[O-])cc2)O1 (stereo not shown),5.69
14,O=C1NC(=O)/C(=C\c2cn(Cc3ccccc3F)c3ccccc23)N1,2.17
15,Cc1ccc(CN2CCN(c3ncccn3)CC2)s1,-2.95
16,CC(C)CC(NC(=O)c1ccc(NC(=O)Nc2ccc(C(=O)NC(CC(C)C)C(=O)NCC#N)cc2)cc1)C(=O)NCC#N (stereo not shown),0.744
17,Cc1cccc(-c2noc(CN(C(=O)C34CC5CC(CC(C5)C3)C4)C(C)C)n2)c1,2.78
18,COc1ccc([C@@H](O)[C@@H](N)c2ccccc2)cc1,5.84
19,COCCNC(=O)c1ccc2c(Cl)c3c(nc2c1)CCCC3,-4.62
20,CC(C)NC(=O)C1c2ccccc2C(=O)N(C)C1c1cccs1 (stereo not shown),-2.97
21,COc1cccc(CNC(=O)C2CCN(S(=O)(=O)N3CCC4(CC3)OCCO4)CC2)c1,-2.99
22,COc1ccc(-n2c(SCC(=O)NCC3CCCO3)nc3c4ccccc4nc-3c2O)cc1 (stereo not shown),-2.12
23,Cc1cc(N2C(N)=C(C#N)C(c3cc(Cn4cnc5ccccc54)cs3)C3=C2CCCC3=O)no1 (stereo not shown),-0.92
24,COc1ccccc1NS(=O)(=O)c1ccc(C(C)C)cc1,2.78
25,CCOC(=O)N1CCN(C(=O)c2ccc(CS(=O)(=O)c3ccccc3OC)o2)CC1,-1.28
